According to paper PMC5679641 (PLoS Pathogens, 2017):

Biological target: T1, p105, Nluc- or YFP-tagged (BRET) (UniProt P19838 1-968)
T1 construct: also called NFκB1(p105/p50)
T1 sequence (looked up): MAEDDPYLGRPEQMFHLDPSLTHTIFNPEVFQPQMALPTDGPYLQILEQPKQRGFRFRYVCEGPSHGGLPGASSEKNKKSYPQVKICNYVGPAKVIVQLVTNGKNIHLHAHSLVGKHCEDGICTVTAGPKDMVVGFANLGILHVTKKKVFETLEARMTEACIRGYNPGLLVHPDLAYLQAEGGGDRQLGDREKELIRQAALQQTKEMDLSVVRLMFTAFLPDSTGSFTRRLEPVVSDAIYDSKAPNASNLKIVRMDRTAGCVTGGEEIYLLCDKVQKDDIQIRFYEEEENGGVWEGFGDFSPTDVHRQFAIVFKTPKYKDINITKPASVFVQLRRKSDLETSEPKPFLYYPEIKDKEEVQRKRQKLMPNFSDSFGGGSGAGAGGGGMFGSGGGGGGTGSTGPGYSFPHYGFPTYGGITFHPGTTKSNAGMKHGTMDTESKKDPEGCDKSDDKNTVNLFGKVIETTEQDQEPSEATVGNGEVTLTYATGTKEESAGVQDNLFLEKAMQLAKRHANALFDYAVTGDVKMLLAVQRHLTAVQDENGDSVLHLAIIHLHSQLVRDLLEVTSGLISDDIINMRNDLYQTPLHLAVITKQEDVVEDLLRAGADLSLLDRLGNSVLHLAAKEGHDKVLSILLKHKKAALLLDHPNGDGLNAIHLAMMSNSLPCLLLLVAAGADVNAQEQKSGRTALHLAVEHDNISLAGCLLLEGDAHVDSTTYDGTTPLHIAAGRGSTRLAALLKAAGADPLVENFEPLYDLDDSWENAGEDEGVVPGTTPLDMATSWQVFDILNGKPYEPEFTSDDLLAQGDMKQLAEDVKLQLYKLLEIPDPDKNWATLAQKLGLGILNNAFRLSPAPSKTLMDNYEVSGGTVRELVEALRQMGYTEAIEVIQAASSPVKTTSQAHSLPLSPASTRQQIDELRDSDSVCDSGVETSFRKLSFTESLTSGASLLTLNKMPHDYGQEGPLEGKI
Experiment: FRET or BRET
Conditions: partners not purified

B1: TPL2, Nluc- or YFP-tagged (BRET) (natural protein)
chain: not shown
notes: also called MAP3K8
- netBRET: < 0.05
